Laboratory results reported in PubChem BioAssay AID1645887 (National Center for Advancing Translational Sciences (NCATS), 2021).
Several values for one entry are separate records, joined by “and”; a condition that tells them apart may be missing. Equal entries are not always repeated. Hit rate of the full screen: of about 16,000 compounds, about 40 (0.2%) were called active. Another 1% or so got no clear call; they are omitted. Calls come from the whole dose curve; as a rule, active = well fitted activation curve with a large enough effect; inconclusive = small, poorly fitted or top-dose-only effect, or another doubt; inactive = no such curve, though single readings can be large or run the other way. The list shows a part of the results.

These compounds were tested against Rap guanine nucleotide exchange factor 4 (Homo sapiens) (UniProt Q8WZA2) (assay: Validation qHTS for agonist of cAMP-regulated guanine nucleotide exchange factor 4 (EPAC2)). Conditions: EPAC2 Rap1B BODIPY-GDP exchange, fluorescence; activation: active compounds read high.
In short: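 Fluorescent exchange assay: 100 nM EPAC2 with 250 nM RAP1B-BODIPY-GDP and 50 uM GDP; compound added, 5 min at room temperature, then read (ex 480/em 540 nm) every 5 min for 30 min. Normalized to 6.5 mM cAMP agonist control.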
% is set by controls: 0 for no effect and ±100 for the full control effect.
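Note: exchange makes BODIPY-GDP fluorescence drop when released from Rap1B; series mostly up to about 150 µM.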

Sequence of UniProt Q8WZA2 (Q8WZA2 whole entry, looked up): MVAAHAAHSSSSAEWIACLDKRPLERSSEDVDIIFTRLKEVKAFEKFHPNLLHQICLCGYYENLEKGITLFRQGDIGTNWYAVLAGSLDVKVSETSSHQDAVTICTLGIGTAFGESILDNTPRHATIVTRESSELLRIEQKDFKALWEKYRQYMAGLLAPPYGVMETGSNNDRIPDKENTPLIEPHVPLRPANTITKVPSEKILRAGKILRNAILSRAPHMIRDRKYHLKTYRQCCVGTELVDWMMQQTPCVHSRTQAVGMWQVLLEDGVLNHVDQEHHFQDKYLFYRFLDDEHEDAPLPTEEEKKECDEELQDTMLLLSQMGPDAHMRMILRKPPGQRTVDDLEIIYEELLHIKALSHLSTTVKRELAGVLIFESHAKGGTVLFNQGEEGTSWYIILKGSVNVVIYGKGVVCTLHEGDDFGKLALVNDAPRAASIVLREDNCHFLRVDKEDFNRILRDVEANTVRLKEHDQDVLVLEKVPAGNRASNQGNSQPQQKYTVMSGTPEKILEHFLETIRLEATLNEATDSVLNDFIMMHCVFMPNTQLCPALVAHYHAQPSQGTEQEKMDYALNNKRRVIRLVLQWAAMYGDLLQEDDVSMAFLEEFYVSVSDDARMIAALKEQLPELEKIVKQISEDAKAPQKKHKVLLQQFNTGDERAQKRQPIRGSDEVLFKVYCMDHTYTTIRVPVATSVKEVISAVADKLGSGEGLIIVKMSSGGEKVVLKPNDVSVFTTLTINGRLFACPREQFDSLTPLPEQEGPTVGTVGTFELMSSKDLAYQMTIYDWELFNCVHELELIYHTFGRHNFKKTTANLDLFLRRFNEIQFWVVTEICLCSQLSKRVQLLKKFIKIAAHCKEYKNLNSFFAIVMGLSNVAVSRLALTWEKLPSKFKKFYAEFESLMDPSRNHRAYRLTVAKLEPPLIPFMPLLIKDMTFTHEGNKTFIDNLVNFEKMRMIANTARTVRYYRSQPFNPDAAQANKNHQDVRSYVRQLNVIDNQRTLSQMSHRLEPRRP

activation, inactive:
COc1ccccc1-c1ccc(C(=O)N(C)CC2COCCO2)c(N2CCN(c3ccccc3F)CC2)n1 (configuration not stated) 4.59%, CC(=O)N1CCC2(CC1)CN(c1ccccc1)C2 -4.55%, COc1ccccc1-c1cncnc1NCCNC(C)=O -4.49%, O=C(Oc1ccccc1)N1CCC2(CCCN(c3ccccc3)C2)CC1 8.8%, CN(Cc1ccco1)c1ccnc(-c2cccc(C#N)c2)n1 1.43%, NCCN -4.09%, CCN(CC)CCOC(=O)c1ccc(N)cc1 -2.73% and -9.89% and -3.31%, COc1ccc(/C=c2\[nH]c(=O)/c(=C/c3ccc(OC)cc3)[nH]c2=O)cc1 -19.2%, COc1ccccc1-c1ccc2ncnc(N3CCNCC3)c2c1 -6.93%, Cc1noc(C)c1-c1ccc2ncnc(NCCN3CCOCC3)c2c1 -9.97%, Cn1ccnc1 -39.6%, Cc1cccc(C)c1NC(=O)CN(CC(=O)O)CC(=O)O -5.17%, CN1CCN(c2ncc3nc(-c4cn(C)c5ccccc45)c(=O)n(C[C@H]4CCCO4)c3n2)CC1 -6.33%, Cc1cnc(CNc2ncnc3ccc(-c4ccccc4C)cc23)cn1 -6.63%, CC1(c2ccccc2)OC(C(=O)O)=CC1=O (configuration not stated) -20.8%, CC(NC(=O)c1cc(F)ccc1F)c1nnc2n1CCN(Cc1ccc(-c3ccccc3)cc1)CC2 (configuration not stated) -20.6%, N#Cc1ccc[n+](CC(=O)c2ccc(F)cc2)c1 -11.3%, CCOC(=O)c1c(C)cc(O)c(C=O)c1O -18.1%, O=C(O)C[C@@H]1NC(=O)[C@H](Cc2ccccc2)NC1=O 1.13%, O=C(c1ccco1)N1CCC2(CCCN(c3cccc(-c4ccccc4)c3)C2)CC1 15.1%, CCCCCCCCCCCCCCCC(=O)OCC(COP(=O)(O)O)OC(=O)CCCCCCCCCCCCCCC (configuration not stated) -1.07%, OC(c1ccc2c(c1)CN(Cc1c[nH]c3ccccc13)CCO2)c1ccccn1 (configuration not stated) -2.92%, CN(C)C(=O)c1ccc(-c2nc(Nc3ccccc3)c3ccccc3n2)cc1 -27.2%, CC(C)[C@@H]1C(=O)N(S(C)(=O)=O)[C@H]2CCN(C(=O)/C=C\CN3CCCCC3)[C@@H]12 -20.2%, COc1ccc(F)c(CN2CCOc3ccc(CN4CCCCC4CO)cc3C2)c1 (configuration not stated) 2.4%, CC(=O)N1CCC2(CCN(Cc3nccs3)CC2)CC1 -7.85%, COc1cccc(Cn2c(=O)c(C)nc3cnc(Oc4ccccc4)nc32)c1 9.31%, CC[C@H](C)C(=O)O[C@H]1C[C@@H](C)C=C2C=C[C@H](C)[C@H](CC[C@@H]3C[C@@H](O)CC(=O)O3)[C@H]21 -51.1% and -9.54%, CC(C)CN1CCCC2(CCN(S(=O)(=O)c3ccccc3)CC2)C1 -6.72%, COc1ccccc1C(=O)N(Cc1cc2cc3c(cc2nc1N(C)C)OCO3)CC1CCCO1 (configuration not stated) -2.77%, CCOC(=O)C[C@H]1c2cc(F)ccc2S(=O)(=O)N1c1ccccc1 -15.4%, Cc1c(CCO)sc[n+]1CCc1ccccc1 -25.9%, CN(C)c1ncc2nc(-c3ccc(F)cc3)c(=O)n(C3CC3)c2n1 -23%, CC(C)CCCC(C)C1CCC2C3CC[C@H]4CC(=O)CC[C@@]4(C)C3CC[C@@]12C (some centres not stated) -12.9%, C1=CC2C3C=CC(C3)C2C1 (configuration not stated) -15.1%, Fc1ccc(/C=C/c2ccc3ccccc3n2)cc1 -4.16%, CCCCCCCCN1[C@@H](CC(=O)O)c2ccc(/C=C/C(=O)O)cc2S1(=O)=O -5.07%, O=c1cc(-c2ccccc2)oc2cc(O)c(O)c(O)c12 -17.2% and -14.2% and 2.43%, COc1ccc(-c2oc3cc(OC)ccc3c(=O)c2O)cc1 0.775%, CC(NC(=O)c1ccco1)c1nnc2n1CCN(Cc1ccc(Cl)cc1)CC2 (configuration not stated) -6.18%, CC(C)CCCC(C)N (configuration not stated) -16.9%, COc1ccc2c(c1)-c1nc(-n3ncc(C(=O)N(C)CC4CCCN(C)C4)c3C)ncc1CC2 (configuration not stated) -16.8%, CNC(C)C1CC[C@H](N)[C@@H](OC2C(N)C[C@H](N)[C@@H](OC3OC[C@](C)(O)C(NC)[C@H]3O)C2O)O1 (some centres not stated) -18.5%, CC1CN(CC(=O)NCCC2COc3ccccc3O2)Cc2cc(Cl)ccc2O1 (configuration not stated) 8.09%, CN(C)CCn1nnnc1SCC1=C(C(=O)O)N2C(=O)[C@@H](NC(=O)Cc3csc(N)n3)[C@H]2SC1 -10%, N[C@@H](CCCC(=O)O)C(=O)O 7.12%, CC(C)CCCC(C)C1CCC2C3C(=O)C=C4CC(O)CC[C@@]4(C)C3CC[C@@]12C (some centres not stated) -16%, CS(=O)(=O)N1CCC[C@@]2(CCN(c3ccccn3)C2)C1 -17.6%, O=C(Nc1cccc(F)c1)N1CCC2(CC1)CCN(S(=O)(=O)c1ccccc1)CC2 -23.6%, COC(=O)C[C@H]1c2cc(F)ccc2S(=O)(=O)N1c1ccccc1 -18.7%, O=c1[nH]c2cc(C(F)(F)F)ccc2n1-c1cc(C(F)(F)F)ccc1O -13.7% and -61.4%, O=C(c1ccncc1)N1CCC2(CCN(Cc3nccs3)CC2)CC1 8.91%, COc1ccc(-n2c(=O)c(-c3ccccc3)nc3cnc(N4CCOCC4)nc32)cc1 -10.3%, CN1CCCC(CNC(=O)c2cnn(-c3nccc(-c4cccs4)n3)c2C2CC2)C1 (configuration not stated) -5.36%, OC(c1cccnc1)c1ccc2c(c1)CN(Cc1cccc3c1OCO3)CCO2 (configuration not stated) 2.08%, CCC1COCCS(=O)(=O)N1Cc1cccc(Cl)c1 (configuration not stated) -36.6%, O=C(c1ccco1)N1CCC2(CC1)CN(c1ncccn1)C2 0.981%
